Assay results: publication PMC4178304
These are yes or no findings as the source states them, for the method shown. In cells and extracts the contact can be indirect. Some results given as binding are weak or reduced against the parent protein; the word gives no strength. For some assays here: Tags and fused reporters may be left off the sequences shown.

Protein sequences, listed by entry. Tags and fused reporters are not part of them. Lines headed by an entry give the natural chain unless they say otherwise; changes in a name come on top. Chains listed by the source or under a name are the forms on record and can include a tag or linker. Residues count along the entry.
UniProt Q2NKI2: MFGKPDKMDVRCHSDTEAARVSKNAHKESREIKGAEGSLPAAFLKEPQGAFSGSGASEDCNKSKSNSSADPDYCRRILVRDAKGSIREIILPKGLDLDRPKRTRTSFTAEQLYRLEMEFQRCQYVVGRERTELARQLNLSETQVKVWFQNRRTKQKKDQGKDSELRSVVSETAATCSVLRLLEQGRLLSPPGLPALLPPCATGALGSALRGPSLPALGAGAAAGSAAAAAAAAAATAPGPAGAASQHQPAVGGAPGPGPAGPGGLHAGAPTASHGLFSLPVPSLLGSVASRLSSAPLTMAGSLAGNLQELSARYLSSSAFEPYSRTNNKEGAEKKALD
Vax1(WF/SR) mutant (Q2NKI2, form named): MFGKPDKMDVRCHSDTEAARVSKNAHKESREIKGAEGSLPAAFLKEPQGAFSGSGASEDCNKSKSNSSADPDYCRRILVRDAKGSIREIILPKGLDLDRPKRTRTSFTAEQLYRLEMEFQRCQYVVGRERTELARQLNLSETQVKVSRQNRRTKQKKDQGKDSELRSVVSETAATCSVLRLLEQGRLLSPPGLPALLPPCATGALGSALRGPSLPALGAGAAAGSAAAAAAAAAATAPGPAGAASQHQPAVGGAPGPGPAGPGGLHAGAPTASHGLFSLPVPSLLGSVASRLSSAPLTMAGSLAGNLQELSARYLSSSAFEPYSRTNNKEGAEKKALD
UniProt P43407, residues 19-202: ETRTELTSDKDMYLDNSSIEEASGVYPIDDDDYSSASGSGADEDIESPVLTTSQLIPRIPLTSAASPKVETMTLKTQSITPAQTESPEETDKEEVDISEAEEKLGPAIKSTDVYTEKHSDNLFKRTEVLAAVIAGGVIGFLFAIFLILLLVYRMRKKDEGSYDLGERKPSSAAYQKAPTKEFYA
UniProt P32114: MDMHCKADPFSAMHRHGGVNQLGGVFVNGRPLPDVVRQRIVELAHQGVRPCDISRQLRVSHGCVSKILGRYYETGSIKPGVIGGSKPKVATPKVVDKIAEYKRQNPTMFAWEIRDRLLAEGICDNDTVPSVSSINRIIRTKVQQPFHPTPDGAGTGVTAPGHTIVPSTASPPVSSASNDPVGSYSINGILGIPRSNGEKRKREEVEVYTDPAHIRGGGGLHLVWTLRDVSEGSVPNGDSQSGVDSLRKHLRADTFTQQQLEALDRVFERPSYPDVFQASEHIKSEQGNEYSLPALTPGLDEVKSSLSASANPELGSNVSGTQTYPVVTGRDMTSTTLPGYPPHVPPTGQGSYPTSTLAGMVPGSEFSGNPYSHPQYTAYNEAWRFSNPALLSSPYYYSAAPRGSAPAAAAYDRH
UniProt Q64519, residues 45-442: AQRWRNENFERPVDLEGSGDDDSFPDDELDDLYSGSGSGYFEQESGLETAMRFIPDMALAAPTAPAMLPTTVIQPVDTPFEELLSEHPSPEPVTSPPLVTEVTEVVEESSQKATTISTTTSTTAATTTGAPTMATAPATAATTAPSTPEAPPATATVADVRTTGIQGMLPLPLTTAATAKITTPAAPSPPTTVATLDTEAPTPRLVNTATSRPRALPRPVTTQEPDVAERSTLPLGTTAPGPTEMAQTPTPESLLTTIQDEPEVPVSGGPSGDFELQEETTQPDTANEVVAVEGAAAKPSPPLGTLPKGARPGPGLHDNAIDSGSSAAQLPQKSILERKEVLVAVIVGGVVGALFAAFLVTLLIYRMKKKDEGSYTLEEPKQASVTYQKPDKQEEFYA

Assays:
[1] = molecular target: Vax1(WF/SR) mutant (mouse) (UniProt Q2NKI2); assay: co-IP; lysates of HEK293T cells co-expressing Vax1, Vax1(WF/SR) or Vax2 with GFP-tagged Sdc constructs; IP of the GFP-Sdc complexes and blot with anti-Vax1 / anti-Vax2, or IP with anti-Vax1 and blot with anti-GFP
[2] = molecular target: Ventral anterior homeobox 1 (Vax1), endogenous in E14.5 mouse optic nerve (mouse (endogenous in E14.5 mouse optic nerve)) (UniProt Q2NKI2); assay: co-IP; IP of endogenous Vax1 from E14.5 mouse optic nerve / OS lysate in the presence of free heparin (1 mg/ml)
[3] = molecular target: Ventral anterior homeobox 1 (Vax1), endogenous in E14.5 mouse optic nerve (mouse (endogenous in E14.5 mouse optic nerve)) (UniProt Q2NKI2); assay: co-IP; endogenous proteins of E14.5 mouse optic nerve lysate (10 mM Tris-HCl pH 7.4, 200 mM NaCl, 1% Triton X-100, 1% NP-40); IP with rabbit anti-Vax1 (or goat anti-Sdc2), 4°C 16 hr, protein A-agarose, Western blot; no heparin
[4] = molecular target: T1, GFP-tagged Sdc1 (UniProt P18828); assay: co-IP; lysates of HEK293T cells co-expressing Vax1, Vax1(WF/SR) or Vax2 with GFP-tagged Sdc constructs; IP of the GFP-Sdc complexes and blot with anti-Vax1 / anti-Vax2, or IP with anti-Vax1 and blot with anti-GFP
T1 sequence: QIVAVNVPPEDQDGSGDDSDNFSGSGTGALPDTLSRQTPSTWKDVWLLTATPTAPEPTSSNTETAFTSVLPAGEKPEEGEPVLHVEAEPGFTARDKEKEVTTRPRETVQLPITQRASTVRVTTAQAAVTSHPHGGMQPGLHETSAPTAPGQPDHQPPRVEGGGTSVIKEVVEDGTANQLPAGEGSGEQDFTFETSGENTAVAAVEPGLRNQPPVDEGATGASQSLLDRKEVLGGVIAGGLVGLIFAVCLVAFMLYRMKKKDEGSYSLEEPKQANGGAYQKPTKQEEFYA

[5] = molecular target: GFP-tagged Sdc2 (UniProt P43407); assay: as above
[6] = molecular target: Ventral anterior homeobox 1 (Vax1), endogenous in E14.5 mouse optic nerve (mouse (endogenous in E14.5 mouse optic nerve)) (UniProt Q2NKI2); assay: co-IP; endogenous proteins of E14.5 mouse optic nerve lysate (10 mM Tris-HCl pH 7.4, 200 mM NaCl, 1% Triton X-100, 1% NP-40); IP with rabbit anti-Vax1 (or goat anti-Sdc2), 4°C 16 hr, protein A-agarose, Western blot; no heparin; remark: listed apart in the source

GFP-tagged Sdc2 (from UniProt P43407 19-202)
binding [1]: binds

Pax2 (paired homeobox 2), endogenous in E14.5 mouse optic nerve (from UniProt P32114 1-414)
binding [2]: binds
binding [3]: binds

Syndecan 2 (Sdc2), endogenous in E14.5 mouse optic nerve (from UniProt P43407 19-202)
binding [2]: no binding (condition: with free heparin (1 mg/ml))
binding [3]: binds

Syndecan 3 (Sdc3), endogenous in E14.5 mouse optic nerve (from UniProt Q64519 45-442)
binding [2]: no binding (condition: with free heparin (1 mg/ml))
binding [3]: binds

Vax1 overexpressed in HEK293T cells (from UniProt Q2NKI2 1-338)
binding [4]: binds
binding [5]: binds

B1: Glypican 1 (Glp1), endogenous in E14.5 mouse optic nerve (protein, UniProt Q9QZF2 24-529)
chain: DPASKSRSCSEVRQIYGAKGFSLSDVPQAEISGEHLRICPQGYTCCTSEMEENLANHSRMELESALHDSSRALQATLATQLHGIDDHFQRLLNDSERTLQEAFPGAFGDLYTQNTRAFRDLYAELRLYYRGANLHLEETLAEFWARLLERLFKQLHPQLLPDDYLDCLGKQAEALRPFGDAPRELRLRATRAFVAARSFVQGLGVASDVVRKVAQVPLAPECSRAIMKLVYCAHCRGVPGARPCPDYCRNVLKGCLANQADLDAEWRNLLDSMVLITDKFWGPSGAESVIGGVHVWLAEAINALQDNKDTLTAKVIQACGNPKVNPHGSGPEEKRRRGKLALQEKPSTGTLEKLVSEAKAQLRDIQDFWISLPGTLCSEKMAMSPASDDRCWNGISKGRYLPEVMGDGLANQINNPEVEVDITKPDMTIRQQIMQLKIMTNRLRGAYGGNDVDFQDASDDGSGSGSGGGCPDDTCGRRVSKKSSSSRTPLTHALPGLSEQEGQKTS
modifications: heparan sulfate (HS) side chains
binding [2]: no binding (condition: with free heparin (1 mg/ml))
binding [6]: binds
